The values below come from PubChem BioAssay AID463173 (ICCB-Longwood Screening Facility, Harvard Medical School, 2010).

In all, about 52,000 compounds went through this assay and about 1,700 (3.3%) were called active. Rule as the data show it: active = survival mostly below about 52% (no sharp cut-off); inactive = mostly above about 56%. This is one part of the list.

The test system of this experiment is Wild type. Nature of the experiment: S. aureus survival, RN4220 and DeltatarO strains – OD600, teichoic acid synthesis inhibitors, primary screen (AID 463173). The conditions noted are these: S. aureus RN4220 wild type/DeltatarO growth, OD600, 18 h, stronger effect = lower value, screened at 18.75 µg/mL (by protocol).
In the case of `CCOc1ccc(C(=O)N(C)CC2COc3ccccc3O2)cc1` (configuration not stated), the survival is inactive: 98%.

With `COc1ccc(NC2=C(c3ccc(C(F)(F)F)cc3)C(=O)c3ccccc32)cc1`, the survival is inactive: 92%. As for `CCc1ccc(C2C(C#N)=C(N)Oc3cc(N)ccc32)cc1` (configuration not stated), the figure is inactive: 102%; as for `COc1ccccc1C(=O)Nc1c(C(=O)NC(C)(C)C)oc2ccccc12`, inactive: 80%; as for `Cc1ccc(-n2nc(C)c3c(C(F)(F)F)cc(-c4cccnc4)nc32)cc1Cl`, inactive: 84%.

As for `COc1cc(OC)c(N(C)C(=O)Nc2cn(CC(C)C)c(=O)c3ccccc23)cc1Cl`, the survival was inactive: 71%. As for `CCCc1nn2c(=O)cc(COC(=O)CNC(=O)COc3ccc(C)cc3)nc2s1`, the figure is inactive: 67%; as for `CCOC(=O)c1ccc(NC(=O)c2cn3c4c(ccc(Cl)c4c2=O)OC(C)C3)cc1` (configuration not stated), inactive: 59%; as for `CSc1nc2ccccc2n1CC(=O)Nc1c(C)cccc1C`, inactive: 109%. Regarding `Cc1ccc(-c2nc(C)c(CCNC(=O)c3ccccc3Br)s2)cc1`, the survival is inactive: 71%. As for `CC1CCN(c2ccc(-c3cccc(NS(=O)(=O)c4ccc(F)cc4F)c3)nn2)CC1`, the figure is inactive: 135%; as for `Cn1c(=O)c(C(=O)NC2CCCCCC2)c(O)c2ccccc21`, inactive: 104%. Consider `CC1CCN(C(=O)CSc2nc(-c3ccc(F)cc3)cc(C(F)(F)F)n2)CC1`, for which the survival is active: 11%. Turning to `CCOC(=O)c1sc(NC(=O)c2c(-c3ccccc3)c(-c3ccccc3)nn(C)c2=O)nc1C`, the survival was inactive: 71%.

As to `Cc1cccc(-n2c(=O)c3ccccc3n(Cc3ccc(F)cc3)c2=O)c1`, the survival was inactive: 81%. Then `CCc1ccc(Nc2nc3ccccc3nc2NS(=O)(=O)c2ccccc2)cc1`, with inactive: 46%; and `COc1ccc(N(C)C(=O)Cn2cc(S(=O)(=O)N3CCN(c4ccccc4F)CC3)c3ccccc3c2=O)c(OC)c1`, with inactive: 99%; and `Cc1ccc(NC(=O)/C=C/c2ccccc2Cl)cc1Cl`, with inactive: 97%. Turning to `COc1ccc(NC(=O)C2=C(C)Nc3nc(SCc4ccc(Cl)cc4)nn3C2c2cccc(OC)c2OC)cc1` (configuration not stated), the survival was inactive: 60%.

For the compound `CCCCOC(=O)c1ccc(NC(=O)c2sc3nc(C)cc(C)c3c2N)cc1`, the survival is inactive: 79%.

In the case of `O=C(Cn1c(=O)nc(-c2ccccc2)c2ccccc21)Nc1ccc(Cl)cc1F`, the survival was inactive: 59%.

Regarding `c1ccc(-c2cc3n(c2)CCc2ccccc2-3)cc1`, the survival was inactive: 106%. In the case of `COC(=O)Cc1c(C)c2ccc3c(c2oc1=O)CN(Cc1ccccc1Cl)CO3`, the survival is inactive: 86%. For the compound `CCOc1ccc(-c2c(C)nn3c(C)c(C(=O)NCCc4ccc(C)cc4)cnc23)cc1OCC`, the survival is inactive: 98%. Turning to `CCc1c(C)sc2c1CCN(Cc1ccccc1F)C2c1ccccc1` (configuration not stated), the survival is inactive: 66%. As for `Cc1nc2cccnc2n1C1CCN(C(=O)Nc2ccc(Cl)cc2)CC1`, the figure is inactive: 68%; as for `O=C(NCCSc1c[nH]c2ccccc12)c1ccccc1Cl`, inactive: 66%; as for `COc1ccc(NC(=O)C2CCN(S(=O)(=O)c3c(C)noc3/C=C/c3cccs3)CC2)cc1Cl`, inactive: 85%. In the case of `COCCNC(=O)c1ccccc1NC(=O)c1nsc2ccccc12`, the survival is inactive: 73%. For the compound `CNC(=O)CN1C(=O)COc2ccc(S(=O)(=O)N3CCC(C)CC3)cc21`, the survival is inactive: 88%. `COC(=O)c1ccc(CSC(=N)N)o1`: the survival was inactive: 101%.

Turning to `CCSc1nnc(CNc2ccc(F)cc2)n1-c1ccc(C)cc1`, the survival was inactive: 110%.

As for `COC(=O)Cn1c(SCCOc2ccccc2OC)nc2ccccc21`, the survival was inactive: 91%. As for `Cc1cc2[nH]c(=O)c(=O)[nH]c2cc1S(=O)(=O)N1CCN(c2cccc(Cl)c2)CC1`, the survival was inactive: 88%.

Consider `COc1ccc2[nH]cc(CCN=C(NC(=O)c3ccccc3OC)Nc3nc(C)cc(C)n3)c2c1`, for which the survival is inactive: 94%. For the compound `CCc1cc2c(cc3c(=O)n(CC(=O)NCCc4ccc(OC)cc4OC)nc(CC)n32)s1`, the survival is inactive: 84%. Then `O=S(=O)(NC1CCCCC1)c1ccc(S(=O)(=O)N2CCN3CCCC3C2)cc1` (configuration not stated), with inactive: 86%; and `COc1cccc(Cn2cc(C(=O)c3ccc(Cl)cc3)c(=O)c3ccccc32)c1`, with inactive: 76%.

In the case of `Cc1ccc(NC(=O)c2ccc(NC(=O)CCS(=O)(=O)c3cccs3)cc2)cc1F`, the survival was inactive: 74%. In the case of `CCSc1ncc(Cl)c(C(=O)Nc2cccc(Cl)c2)n1`, the survival is inactive: 84%. For the compound `Cc1ccccc1Nc1c(-c2ccc(N3CCOCC3)cc2)nc2ccc(Br)cn12`, the survival is inactive: 88%. Then `N#C/C(=C\c1ccc(-c2ccc(Br)cc2)o1)C(=O)OC1CCCCC1`, with inactive: 103%; and `Cc1ccc2c(=O)cc(C(=O)Nc3c(C)n(C)n(-c4ccccc4)c3=O)oc2c1`, with inactive: 82%.

As for `CCOC(=O)C1(C)C=C(Nc2cccc(C(=O)O)c2)C(=O)N1c1ccccc1` (configuration not stated), the survival was inactive: 91%. `Cc1ccc(CNC(=O)C(=O)NCC(c2ccc3c(c2)OCO3)N2CCOCC2)cc1` (configuration not stated): the survival was inactive: 75%. `Cc1ccc(Nc2ncnc3sc4c(c23)CCC(C)C4)cc1C` (configuration not stated): the survival was inactive: 64%. Turning to `COc1cc(NC(=O)CSc2nc3nc(C)c(Cc4ccccc4Cl)c(C)n3n2)cc(OC)c1`, the survival was inactive: 75%.

For `COc1ccccc1N1CCN(C(=O)C2CCCN(S(=O)(=O)c3ccc4c(c3)CCCN4C(C)=O)C2)CC1` (configuration not stated), the survival was inactive: 69%. Then `Cn1nc(CC(=O)Nc2ccc(N3CCN(C(=O)OC(C)(C)C)CC3)cc2)c2ccccc2c1=O`, with inactive: 103%; and `COc1cc(Cl)c(C)cc1NC(=O)c1cnc(N2CCCCC2)c2ccccc12`, with inactive: 115%; and `CCCOc1ccc(CNC(=O)C(NS(=O)(=O)c2cccs2)C(C)C)cc1` (configuration not stated), with inactive: 68%. Turning to `CC(C)Cn1c(-c2cccc(Br)c2)nc2ccccc21`, the survival was active: 27%. With `COC(=O)C(CCSC)Nc1ncnc2onc(-c3ccc(F)cc3)c12` (configuration not stated), the survival was inactive: 74%. `COc1cc2nc(SCc3ccc(C)cc3)n3nc(CCn4nc(C)cc4C)nc3c2cc1OC`: the survival was inactive: 73%. In the case of `CCOc1ccccc1NC(=O)C(=O)Nc1ccc2nc3n(c(=O)c2c1)CCCCC3`, the survival was inactive: 75%. `CC(C)NS(=O)(=O)c1ccc(CCC(=O)Nc2ccc3c(c2)OCCO3)cc1`: the survival is inactive: 110%. As for `Cc1cc(C)cc(NC(=O)C(Cc2ccccc2)NS(=O)(=O)c2ccc3c(c2)CCC(=O)N3)c1` (configuration not stated), the figure is inactive: 82%.
